In the supplement of paper PMC11417369:
The list shows a part of the results.

Test system: PfAP2-HC AP2 domain (GST-tagged)
Assay: gcPBM binding intensity (ln(normalized median fluorescence intensity)); higher = stronger DNA binding
In short: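 Alexa488 anti-GST antibody, scanned at 488 nm, detected GST-tagged P. falciparum DNA-binding domains that had been expressed in E. coli and incubated for 1 h on an Agilent 4 × 180k array. The array carried primer-extended double-stranded 36-bp intergenic genomic probes and negative controls. Binding intensity is the highest Masliner-normalised natural-log median intensity across replicate spots of either orientation of each probe.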

| Sequence | gcPBM binding intensity (ln) |
| --- | --- |
| TTTTTTTTTATAAGGTGTACGTAAAATGTGTAGGTC [XGTACX_site3585] | 9.54 |
| TCACATATTATCTTTACACACTATATATAAGTTTTA [CACACA_site2790] | 9.78 |
| TCATGTTTTACAAAAACACACAAATGAATATAAACC [CACACA_site1161] | 9.82 |
| TGTACATAAATCTAATTATTATATGTGTATATATAT [CACACA_negctrl_site1582] | 9.62 |
| TTAAGATAGCAAATATGTACACATTTGTAAAATAAA [XGTACX_site4837] | 9.85 |
| AAGGAGCCTATGAACACACACATGTACCTATATTAA [CACACA_site7838] | 9.94 |
| AGAATGAAATAATATACACACAAAGGAAAAATGTAA [CACACA_site3911] | 9.98 |
| ATACGTATTTATTTCACACACGTTAAAAAAATAAAA [CACACA_site6027] | 9.75 |
| TAAGTGCTTTTCAACTGTACCTTCCATTTATTTATT [XGTACX_site8589] | 9.8 |
| TCTTGACTAAATATATGTACATATATTTTAATAATA [XGTACX_site701] | 9.37 |
| ACTACATAATATTTACGTACCTAAAAAATTCTTATA [XGTACX_site509] | 9.48 |
| TTCTTATTTTATATTTCACACATTTTTACTATACTT [CACACA_site5817] | 9.98 |
| GTATTCAAAAGTGAAACATGCAATAATATATATATA [TGCATGCA_site617] | 9.63 |
| AAAAAAAAAAAAAATACACACGTGAATGTATTGTTT [CACACA_site4856] | 9.74 |
| TAATATCATTTAGACACACACTCTTACAATATGTAA [CACACA_site5434] | 10.1 |
| AGTTCGAATATATAAAGTACATAATTATATATTTGC [XGTACX_site2604] | 9.61 |
| TCTATTAACTGATGTGCATGTTATAACCTAGAAGTA [TGCATGCA_site359] | 9.49 |
| AAAAATCGATACAAGCGTACAAAATAAAATAAAAAT [XGTACX_site5546] | 9.83 |
| TTACACATATTATATATATATAAAAAAAAAAAATAT [CACACA_negctrl_site1684] | 9.69 |

| Sequence | gcPBM binding intensity (ln) |
| --- | --- |
| TAAATTGAGTATATTACACACATATAAATATATTAT [CACACA_site4027] | 9.77 |
| TATATATATATATGTATATATGTATATCTATATTTA [CACACA_negctrl_site131] | 9.57 |
| TCTTATCCTACTTTTATTTTTACTTTTTTTTCTTAT [CACACA_negctrl_site111] | 9.89 |
| TGGATTCGTATATGTAGTACTATTTATATGTGATTT [XGTACX_site1581] | 9.71 |
| ATATATATATATATATGTACATAATTAATAATTAGA [XGTACX_site5672] | 9.77 |
| AAGTGTATATAAAAATGTACATATTTCGATTTAAAT [XGTACX_site4161] | 9.72 |
| AATATATACCAACATAAATATATATATATATATATA [TGCATGCA_negctrl_site334] | 10.2 |
| TAATAAATATATAATTGTACTTAAAAGAATATAAAA [XGTACX_site2928] | 9.34 |
| TTAATATTTACAAAATGTACAGATTATTTATTGTTG [XGTACX_site1270] | 9.67 |
| AAATATGTCAAATATACACACATAATAACTAGAATA [CACACA_site7151] | 10.1 |
| AATAATTATAATAAGGGTACGTATCTCACAGGAAAA [XGTACX_site4187] | 9.83 |
| TTTTTTAATATTTATACATGCATGCCGATTACTATA [TGCATGCA_site26] | 9.87 |
| TTAATTTGTAAATAATGTACATATAAATGGAAAGTA [XGTACX_site2743] | 9.73 |
| TATTTATTAAAACACACACACACACCGACAAAATAA [CACACA_site4293] | 10.5 |
| TAATAAAACATATATACACACATTATGTATACATAT [CACACA_site1703] | 9.94 |
| ACAATACAAATATATACACACATACATACATACATA [CACACA_site5699] | 10.4 |
| AAAACATTATTCCATACACACCATACTTTTTAATAA [CACACA_site7326] | 9.85 |
| TAAAATATTATCTACGCACACATTAAAATAAAAAAA [CACACA_site3709] | 9.84 |
| CATTTGCACACGCACACACACATAAAAAGAAAAATA [CACACA_site6297] | 11.1 |

| Sequence | gcPBM binding intensity (ln) |
| --- | --- |
| ATAAAGAAAAGGAACACACAAATATGTAAATATGTA [CACACA_site6356] | 10.1 |
| TTACACATAAATACCATATAAATATAATGCATATCT [CACACA_negctrl_site1731] | 9.66 |
| AATAATAAACACAATCAAATAAAATATGAAATATAA [GTGCAC_negctrl_site307] | 9.94 |
| CCCTGAGCACTTTCGTGTACTAATAGTAACAATAAT [XGTACX_site1418] | 9.52 |
| AAATGTTGAAATGATACACACATATAAATATAAATA [CACACA_site7229] | 9.86 |
| AAACAAATGTATATGTGTACTTATTTTTTTGTATGT [XGTACX_site7134] | 9.66 |
| ATCAGTCGAGATGACAGTACACAGTAGCCAGGAAAT [XGTACX_site4932] | 9.64 |
| TATGTAGATAAATAAGCACACACCAAACATATAAAA [CACACA_site1182] | 10.3 |
| TATATATATTTAAAAAGTACAAAAAAAAAAAATGAA [XGTACX_site374] | 9.72 |
| TATATGTGACATGAATGTACCCAAATTATATAAGAA [XGTACX_site3937] | 9.6 |
| TATTCTTACACGTTTGCACACTAAAATATATATATA [CACACA_site435] | 9.84 |
| CATAGGAACATAAGTTGTACGCTATACATACAACAT [XGTACX_site1054] | 9.85 |
| ATTTAATATATTTATTGTACATATAAAATAAAAGAA [XGTACX_site2413] | 9.61 |
| TTAGTGTATTAATTCTCACACACTAAGAAAAAAAAA [CACACA_site3878] | 9.68 |
| ATAAATCCATGGGTAGTGCGCATTTTTTTTTTTTTT [GTGCAC_site9732] | 9.91 |
| ATAAAATGTATATGAATGCACTTGAAGTTTTTTTTT | 9.6 |
| TCTCCTTGTTCCTTTTTTTTAAAAAAAAACATTAAA [CACACA_negctrl_site679] | 9.59 |
| TAATAATAATACCAGCGTACATTTTTCTTTCCTACG [XGTACX_site4056] | 9.69 |
